Assay results from the supplement of paper PMC4206461.
The other results are listed elsewhere or left out.

test system: Pseudomonas aeruginosa PA14 dppA1-A5 penta deletion mutant; assay: respiration area under curve with compound as sole nitrogen source, 24 h (OmniLog AUC (arbitrary units)); higher = more respiration / better utilisation as nitrogen source, active = 2000 or more; extreme values may be limits of the assay; details: plate: PM6
Description: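 Biolog Phenotype MicroArray plates PM6-PM8: each di/tripeptide is the sole nitrogen source. Tetrazolium reduction was read in the OmniLog for 24 h at 37°C and summarised as area under the respiration curve (arbitrary units). Values below 2000 count as no respiration.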

SMILES | respiration area under curve
NC(N)=NCCC[C@H](N)C(=O)N[C@@H](Cc1ccccc1)C(=O)O | active: 9720
CC[C@H](C)[C@H](N)C(=O)N[C@@H](Cc1ccc(O)cc1)C(=O)O | inactive: 632
C[C@H](N)C(=O)NCC(=O)O | active: 4200
C[C@H](N)C(=O)N[C@@H](C)C(=O)O | active: 6930
NC(N)=NCCC[C@H](NC(=O)[C@@H](N)CCCN=C(N)N)C(=O)O | active: 10100
C[C@H](N)C(=O)N[C@@H](CO)C(=O)O | active: 8800
CSCC[C@H](NC(=O)[C@@H](N)CCCN=C(N)N)C(=O)O | active: 10700

same assay, conditions: plate: PM7

SMILES | respiration area under curve
O=C(O)CC(NC(=O)C1CCCN1)C(=O)O (stereo unspecified) | inactive: 2
N[C@@H](CO)C(=O)N[C@@H](Cc1ccc(O)cc1)C(=O)O | active: 2440
NC(=O)CC[C@H](NC(=O)[C@@H]1CCCN1)C(=O)O | inactive: 1980
C[C@H](NC(=O)[C@@H]1CCCN1)C(=O)O | inactive: 630
N[C@@H](Cc1c[nH]c2ccccc12)C(=O)N[C@@H](CC(=O)O)C(=O)O | inactive: 78.9
N[C@@H](Cc1ccccc1)C(=O)N1CCC[C@H]1C(=O)O | inactive: 0
CSCC[C@H](NC(=O)[C@@H](N)CO)C(=O)O | inactive: 322
CC(C)[C@H](N)C(=O)N[C@H](C(=O)O)C(C)C | active: 3720
C[C@H](NC(=O)[C@@H](N)CO)C(=O)O | active: 2830

same assay, conditions: plate: PM8

SMILES | respiration area under curve
CSCCC(NC(=O)C(N)C(C)C)C(=O)O (stereo unspecified) | inactive: 871
CC[C@H](C)[C@H](NC(=O)CNC(=O)CN)C(=O)O | inactive: 29.1
NC(=O)CC[C@H](NC(=O)[C@@H](N)CC(=O)O)C(=O)O | inactive: 324
CC[C@H](C)[C@H](NC(=O)[C@H](C)N)C(=O)O | inactive: 1180
CC(C)C[C@H](N)C(=O)NCC(=O)NCC(=O)O | active: 6350
C[C@@H](N)C(=O)NCC(=O)O | inactive: 0
C[C@@H](O)[C@H](N)C(=O)N[C@@H](CCC(N)=O)C(=O)O | inactive: 1050
CC(C)C[C@H](NC(=O)[C@H](CC(C)C)NC(=O)[C@@H](N)CC(C)C)C(=O)O | active: 3770
NCC(=O)NCC(=O)N[C@@H](Cc1ccccc1)C(=O)O | inactive: 1
CC(NC(=O)C(N)CC(=O)O)C(=O)O (stereo unspecified) | inactive: 215
CC[C@H](C)[C@H](N)C(=O)N[C@@H](CC(C)C)C(=O)O | active: 2510
N[C@@H](Cc1ccccc1)C(=O)NCC(=O)NCC(=O)O | inactive: 1270
NC(=O)CC[C@H](N)C(=O)N[C@@H](CCC(=O)O)C(=O)O | active: 2390
N[C@@H](CO)C(=O)N[C@@H](CC(=O)O)C(=O)O | inactive: 0
CC(C)[C@H](NC(=O)[C@@H](N)Cc1ccc(O)cc1)C(=O)O | active: 5270
